The supplement of paper PMC3334620
The full ranking holds about 33,000 sequences; the median of “E-score (-0.5 to 0.5)” is about -0.043, and the highest 2% start at about 0.37. This is one part of the list.

The sequences below were run against T1, Upc2 (UniProt Q12151) (assay: PBM E-score (8-mer binding enrichment) (E-score (-0.5 to 0.5)); higher = stronger / more preferred TF binding; most listed sequences are background and not binding sites). Conditions: protein concentration: 200 nM; construct: GST-full length.
T1 sequence: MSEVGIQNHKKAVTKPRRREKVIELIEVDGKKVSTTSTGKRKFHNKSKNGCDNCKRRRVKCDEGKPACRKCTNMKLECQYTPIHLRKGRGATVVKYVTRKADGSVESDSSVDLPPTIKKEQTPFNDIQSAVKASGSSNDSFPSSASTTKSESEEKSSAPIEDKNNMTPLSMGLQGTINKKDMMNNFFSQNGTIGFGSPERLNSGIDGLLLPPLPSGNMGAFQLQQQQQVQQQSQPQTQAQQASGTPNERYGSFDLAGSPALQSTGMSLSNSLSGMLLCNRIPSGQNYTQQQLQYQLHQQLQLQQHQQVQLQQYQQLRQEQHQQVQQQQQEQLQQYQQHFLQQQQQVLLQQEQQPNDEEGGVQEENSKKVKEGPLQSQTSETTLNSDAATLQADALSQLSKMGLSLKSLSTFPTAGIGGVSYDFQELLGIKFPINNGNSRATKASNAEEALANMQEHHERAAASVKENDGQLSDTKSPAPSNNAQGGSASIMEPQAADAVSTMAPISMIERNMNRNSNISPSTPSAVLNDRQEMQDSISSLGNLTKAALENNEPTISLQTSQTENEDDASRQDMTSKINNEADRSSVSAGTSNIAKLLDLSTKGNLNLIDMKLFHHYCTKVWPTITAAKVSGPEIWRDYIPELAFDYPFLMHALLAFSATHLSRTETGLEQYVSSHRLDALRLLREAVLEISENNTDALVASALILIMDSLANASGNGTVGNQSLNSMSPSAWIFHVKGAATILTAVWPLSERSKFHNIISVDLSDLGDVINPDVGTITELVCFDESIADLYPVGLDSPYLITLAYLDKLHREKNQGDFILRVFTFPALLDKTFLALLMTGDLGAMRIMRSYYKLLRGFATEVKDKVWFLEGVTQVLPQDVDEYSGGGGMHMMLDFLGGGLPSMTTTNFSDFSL
Outline: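 GST-tagged yeast TFs (full-length or DNA-binding domain) were made by PURExpress in vitro transcription/translation and applied at about 100-200 nM to universal all-10-mer Agilent arrays. The arrays were made double-stranded by primer extension, on fresh or once-stripped slides. Bound protein was detected with fluorescent anti-GST, and scans were normalised with masliner. Each ungapped eight-base word, pooled with its reverse complement, received an E-score (modified Wilcoxon-Mann-Whitney statistic) from the Universal PBM Analysis Suite.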

Sequence | PBM E-score
AGTTCTAT | -0.0417
ACAACATG | 0.0906
ACGAGTGA | 0.352
ACACCTAT | 0.0177
TGTTAGAA | -0.177
GTAACTTA | 0.0946
GGTTTCAC | -0.111
GGCTGGGA | -0.165
GCCTCTCA | -0.25
CATCCCGA | -0.178
GTATAAAA | 0.348
CGCGCGAC | 0.129
AAAGGGGA | -0.172
TCCGAACA | -0.0096
ACACTGTG | -0.18
ACACGCAC | -0.0963
AGTGACCA | -0.153
GGCGCGAA | -0.125
GTGAACAC | -0.0994
ATATATTA | 0.064
TCTTAGCA | -0.0981
AGTAAGTG | -0.167
AACACCTA | -0.171
CACGCAAC | 0.0992
ACGGTCAC | 0.032

Sequence | PBM E-score
CCCATGCC | -0.233
CAGCAGCC | -0.102
CGTACCAC | 0.407
GCTACCCC | -0.256
CAGAAGGG | -0.19
GACACACA | 0.00071
ATCCGCCC | -0.0223
ACGCCACG | -0.121
CCGCCAGA | -0.0795
TACTAGCA | 0.0502
AGTGTTTG | -7e-05
TCCAGTAA | -0.212
CCCACGAA | 0.0759
CTTAGGAC | -0.205
CGGTTGCA | -0.101
ACGAATCG | 0.34
CGGAGCCG | 0.101
GATACAGA | -0.166
AGCGAACG | 0.311
ATTTCGCC | 0.131
CGTTTCTA | 0.209
ATCATGAG | 0.0412
GATACCTA | 0.104
AGCTACAC | -0.041
CGGCTGAC | 0.0387

Sequence | PBM E-score
CTTCTCGC | 0.143
AAACCCTT | -0.0779
GATATCTA | 0.011
CATCGCCA | -0.158
ACGATGTC | 0.248
AGCGTTAT | -0.104
CCAAGATA | -0.0954
AACTGGCC | -0.0972
CATGCCAG | -0.132
GTTCTCTA | 0.102
CGCTTAGA | 0.284
GAAGGTGC | -0.124
CGCCGTGC | -0.206
ACATTTAG | -0.157
TCGATCGA | 0.00235
AATCCTGG | -0.229
GCTCGCGA | 0.217
GATAGGTA | -0.0107
CTGTAGAC | -0.159
ATACTCGA | 0.0936
CGCGCGCG | 0.111
TCGCTGCA | 0.0736
CTGGATTA | -0.0807
TTACACAA | 0.0925
ACCCTTCT | -0.0155

Sequence | PBM E-score
TCCGCTAA | 0.0225
CGCCGTCA | -0.165
CGCTGTAC | 0.236
ACATGGGC | -0.212
CACGGAAG | -0.232
GAGCGCGA | 0.111
AACGTAGC | 0.136
ATGACTTA | -0.00461
GCTGCTCC | -0.203
GAGTGATC | -0.0886
ATTTACGA | 0.45
ATCTGACC | 0.121
TAGGCAGA | -0.114
GCTGGGCA | -0.103
AGGTCCTC | 0.0108
AGCGTGAA | -0.0302
ACCAACTA | 0.0588
TCCGGAGA | -0.214
CATCATCG | -0.0677
CCACCTAG | -0.209
AAGACCGC | -0.0359
ATACGTGA | 0.301
CCCAGCCA | -0.0649
ATGTCTAG | -0.149
CCTCGGTA | 0.146

Sequence | PBM E-score
ACGTCTTC | 0.0586
ACCTATGC | -0.0457
CGCGTTAG | -0.0219
ATGAACTA | 0.0188
GATGGTGC | 0.014
AGGTGCTA | -0.0228
AGGCCGGC | -0.327
CCCGTTAG | -0.147
ATATGAAT | -0.0329
ACCCCAGC | -0.195
CCCGACAG | -0.221
ATTACGAA | 0.339
ACGCAAAC | 0.294
CGGCATAG | -0.0559
TATTTTAA | 0.172
CCCATCAG | -0.245
CGAGGTCA | 0.179
GCTCCCGA | -0.166
CAAAATCA | -0.00479
TCTCAAGA | -0.386
CGTATGGC | 0.413
GTCTTGGA | -0.347
CCGCGCCC | -0.301
AAGAGTAC | 0.0697
AATAGAGC | -0.0115

Sequence | PBM E-score
GGCCCGGA | -0.181
AAGCATCA | -0.197
ACCACTTC | -0.0166
AACGCAAT | 0.138
CGGTGTAG | 0.0105
ATAGTACA | 0.149
AGCTGCGC | -0.0694
TAAATCTA | -0.05
AGGGAAGG | -0.278
CCATTCTC | -0.165
ACTTGCGC | 0.0996
AGATAGGA | -0.185
ACATCGAA | 0.168
AGGAGTAG | -0.228
CAACAAGA | 0.0115
AGGACCAA | -0.0993
AACTCCAA | -0.279
CATAAAAG | -0.00852
CCACCTAC | -0.298
AGCGTGCC | -0.0881
ACTGGCTA | -0.325
CTCAGTAC | 0.0767
GAGTTCCA | -0.0401
CGCCCCAA | -0.119
GCTGTCCC | 0.0523

Sequence | PBM E-score
CGTTTCTC | 0.209
AAAAGGAT | -0.0713
GACGTCAC | -0.319
ACCATAAC | 0.0503
CCTCTGTC | 0.0289
CACGTAAA | 0.253
ACTTACAT | 0.0328
AGAAACAC | -0.0232
CCCGCTAC | 0.216
CCAACCAC | -0.042
AACTCACA | -0.127
TCGGGCCA | -0.175
ACTCTTTG | -0.206
ACTACCCT | -0.221
ACCCTTAA | 0.0556
AGCTGCAC | -0.162
GACTCCAC | -0.226
CTAAGAAA | 0.0673
GCAGGCAC | -0.282
ACGACCGT | 0.338
AGGATCGC | 0.015
CGAGTACA | 0.232
